Reference: patent US8969542B2, “HPV polyepitope constructs and uses thereof” (priority 2007, dated 2015)
At least one peptide structure holds a part that was inferred or is arguable (an end, a ring closure or a residue). Where no end group is shown, it is not given here.

Assays:
HLA A2902 = HLA A2902 (Homo sapiens, UniProt P04439, A270S/D101N/D185E/E176V/E277Q/E87Q/F33T/G231S/H175R/I121M/I218V/I322F/K168Q/L300P/L318F/M331R/P208A/P217A/Q86L/T323A/T345S/V100A/V358M); test: HLA class I competition binding assay using soluble HLA; conditions: purified HLA, 125I-radiolabeled probe peptide; read-out: Binding of HLA A01-restricted peptides, HLA A2902 (IC50)
HLA A3002 = HLA A3002 (Homo sapiens, UniProt P04439, D101N/D140H/D185E/E176R/F33S/G80R/H175R/K168Q/Q94H/R138E/R41S/V100E); test: as above; conditions: purified HLA, 125I-radiolabeled probe peptide; read-out: Binding of HLA A01-restricted peptides, HLA A3002 (IC50)
[1] = system: CD8+ spleen cells of HLA transgenic mice (HLA-A01/Kb, F1 HLA-A02/KbxBalb/c, HLA-A11/Kb, HLA-A24/Kb); test: Immunogenicity after HPV DNA construct immunization, direct ex vivo IFNγ ELISPOT; assay type: in vivo, mouse; conditions: for ICCG6137 SFC/10^6 cells Delta: immunization with DNA construct ICCG 6137; for ICCG6137 SFC/10^6 cells Delta / ICCG6138 SFC/10^6 cells Delta: HLA transgenic mice (HLA-A01/A02/A11/A24), CD8+ cells restimulated with WT peptide 10 μg/mL, IFNγ ELISPOT; for ICCG6138 SFC/10^6 cells Delta: immunization with DNA construct ICCG 6138
Experimental: The immunogenicity of HPV HLA class I-restricted epitopes encoded in the DNA constructs was tested in the relevant HLA transgenic mice. […] To ensure an equal distribution of mice between different groups, a randomisation procedure based on body weight was performed. Female and male mice (age between 8 and 24 weeks) were ranked by body weight, extreme light or heavy animals were excluded. The remaining animals were grouped by sequentially assigning animals for the 2 experiments.
Mice were pre-treated with cardiotoxin (Sigma, C9759) on day −4 by bilateral intramuscular injection of 100 μl (2×50 μl) of a 10 μM cardiotoxin solution. Four days later, all mice were immunised with 100 μg HPV-DNA plasmid (diluted to 1 mg/ml in PBS) by bilateral injection of 50 μg in the m. tibialis anterior. […]
(§1) Mice were euthanized and spleen cells (SPC) were isolated 13 days after immunization. […] Spleen cells of DNA- and peptide-immunized HLA-A11/Kb mice were analyzed individually. SPC of all negative control mice were pooled per 2 mice, resulting in 3 data points for each peptide tested.
(§2) A direct ex vivo IFNγ ELISPOT assay was used as surrogate CTL readout. Basically, purified CD8+ cells were incubated with the individual HPV-specific HLA-restricted peptides (10 μg/mL) loaded on the appropriate antigen presenting cells (APC), in anti-mouse IFNγ antibody-coated ELISPOT plates. […] After 20 h incubation, IFNγ-producing cells were visualized by further developing the plates with biotinylated anti-mouse IFNγ antibody, streptavidin-HRP and AEC as substrate.
(§3) Some of the CTL epitopes included in the DNA constructs are analoged sequences of the wild type viral epitopes. For these particular epitopes, only the wild type sequences were used as in vitro stimulus for CTL readout.

[2] = system: CD8+ spleen cells of HLA transgenic mice (HLA-A01/Kb, F1 HLA-A02/KbxBalb/c, HLA-A11/Kb, HLA-A24/Kb); test: Immunogenicity after peptide pool/IFA immunization, direct ex vivo IFNγ ELISPOT; assay type: in vivo, mouse; conditions: for Delta SFC/10^6 cells: Peptide Pool; for Peptide Pool SFC/10^6 cells Delta: immunization with pool of peptides emulsified in IFA, HLA transgenic mice (HLA-A01/A02/A11/A24), CD8+ cells restimulated with WT peptide 10 μg/mL, IFNγ ELISPOT
Experimental: CTL binding epitopes were evaluated for their immunogenicity in different HLA transgenic mice. To this, a single immunization with CTL peptide pools together with a common HTL epitope emulsified in IFA was performed and up to 14 days later, CD8+ spleen cells were isolated and evaluated for epitope specificity using a direct ex vivo IFNγ ELISPOT assay.
Peptides were dissolved in DMSO at a concentration of 10 mg/mL. For each of the 4 DNA constructs, the corresponding HLA-restricted peptides were pooled per HLA type (5 to 7 CTL peptides/pool). A known HTL peptide ([…]) was added and the peptide pools were diluted in PBS to the required peptide concentration (i.e. 25 μg of each CTL peptide and 120 μg HTL peptide in 50 μl). After adding an equal volume of IFA (Pierce, lot DG56079), the mixture was emulsified by forcing it through a small orifice. Mice were immunized subcutaneously at the base of the tail with 50 μl peptide/IFA mixture.
As negative control for the peptide-immunized mice, 18 mice (in total) were injected with a PBS/IFA mixture.
as §1, §2, §3

[3] = HLA-A11 epitopes, HLA-A11/Kb mice, DNA construct ICCG6149, median
[4] = HLA-A11 epitopes, HLA-A11/Kb mice, DNA construct ICCG6150, median
[5] = HLA-A11 epitopes, HLA-A11/Kb mice, median
[6] = HLA-A24 epitopes, HLA-A24/Kb mice, DNA construct ICCG6149, median of mouse pools
[7] = HLA-A24 epitopes, HLA-A24/Kb mice, DNA construct ICCG6150, median of mouse pools
[8] = HLA-A24 epitopes, HLA-A24/Kb mice, median of mouse pools
[9] = HLA-A02 epitopes, F1 HLA-A02/KbxBalb/c mice, DNA construct ICCG6149, median of mouse pools
[10] = HLA-A02 epitopes, F1 HLA-A02/KbxBalb/c mice, DNA construct ICCG6150, median of mouse pools
[11] = HLA-A02 epitopes, F1 HLA-A02/KbxBalb/c mice, median of mouse pools

Sequence	ICCG6137 SFC/10^6 cells Delta [1]	ICCG6138 SFC/10^6 cells Delta [1]	Peptide Pool SFC/10^6 cells Delta [2]	further results
ISDYRHYCY [compound 5]				IC50 (HLA A2902): 0.01 µM
LQDKIIDHY [compound 24]				IC50 (HLA A3002): 2.77 µM; Delta SFC/10^6 cells ([1]; HLA-A01 epitopes, HLA-A01/Kb mice, DNA construct ICCG6150, median of mouse pools): 3 SFC/10^6 cells; Delta SFC/10^6 cells ([2]; HLA-A01 epitopes, HLA-A01/Kb mice, median of mouse pools): 8 SFC/10^6 cells
STVSVGTAK [compound 34]				Delta SFC/10^6 cells [1, 3]: 435 SFC/10^6 cells; Delta SFC/10^6 cells [1, 4]: 245 SFC/10^6 cells; Delta SFC/10^6 cells [2, 5]: 440 SFC/10^6 cells
STWHWTGCNK [compound 80]	70 SFC/10^6 cells	70 SFC/10^6 cells	635 SFC/10^6 cells	
SVICFVNSK [compound 16]				Delta SFC/10^6 cells [1, 3]: 1 SFC/10^6 cells; Delta SFC/10^6 cells [1, 4]: 40 SFC/10^6 cells; Delta SFC/10^6 cells [2, 5]: 320 SFC/10^6 cells
SVYGETLEK [compound 83]	50 SFC/10^6 cells	130 SFC/10^6 cells	1080 SFC/10^6 cells	
SYFGMSFIHF [compound 39]	10 SFC/10^6 cells	3 SFC/10^6 cells	45 SFC/10^6 cells	Delta SFC/10^6 cells [1, 6]: 808 SFC/10^6 cells; Delta SFC/10^6 cells [1, 7]: 498 SFC/10^6 cells; Delta SFC/10^6 cells [2, 8]: 65 SFC/10^6 cells
TLYAHIQCL [compound 72]	1990 SFC/10^6 cells	1820 SFC/10^6 cells	780 SFC/10^6 cells	
TVSATQLVK [compound 33]				Delta SFC/10^6 cells [1, 3]: 15 SFC/10^6 cells; Delta SFC/10^6 cells [1, 4]: 11 SFC/10^6 cells; Delta SFC/10^6 cells [2, 5]: 20 SFC/10^6 cells
TVYVFCFLL [compound 29]				Delta SFC/10^6 cells [1, 9]: 1 SFC/10^6 cells; Delta SFC/10^6 cells [1, 10]: 3 SFC/10^6 cells; Delta SFC/10^6 cells [2, 11]: 25 SFC/10^6 cells
VAWDSVYYM [compound 28]				Delta SFC/10^6 cells [1, 9]: 290 SFC/10^6 cells; Delta SFC/10^6 cells [1, 10]: 450 SFC/10^6 cells; Delta SFC/10^6 cells [2, 11]: 495 SFC/10^6 cells
VFTFPHAFPF [compound 84]	10 SFC/10^6 cells	3 SFC/10^6 cells	75 SFC/10^6 cells	
VFTFPNPFPF [compound 62]	1543 SFC/10^6 cells	600 SFC/10^6 cells	940 SFC/10^6 cells	
VMDDSEIAY [compound 45]		238 SFC/10^6 cells	53 SFC/10^6 cells	
VTTRYPLLR [compound 81]	160 SFC/10^6 cells	400 SFC/10^6 cells	430 SFC/10^6 cells	
VVFIYIPLF [compound 64]	46 SFC/10^6 cells	93 SFC/10^6 cells	715 SFC/10^6 cells	
VVLLLVRYK [compound 12]				Delta SFC/10^6 cells [1, 3]: 1 SFC/10^6 cells; Delta SFC/10^6 cells [1, 4]: 15 SFC/10^6 cells; Delta SFC/10^6 cells [2, 5]: 540 SFC/10^6 cells
VYDFAFRDLCI [compound 20]				Delta SFC/10^6 cells [1, 6]: 435 SFC/10^6 cells; Delta SFC/10^6 cells [1, 7]: 760 SFC/10^6 cells; Delta SFC/10^6 cells [2, 8]: 1 SFC/10^6 cells
VYGTTLEKL [compound 66]	77 SFC/10^6 cells	55 SFC/10^6 cells	105 SFC/10^6 cells	
VYQFAFKDL [compound 87]	23 SFC/10^6 cells	1 SFC/10^6 cells	105 SFC/10^6 cells	
VYVCAFAWLL [compound 86]	712 SFC/10^6 cells	75 SFC/10^6 cells	125 SFC/10^6 cells	
VYVFCFLLPM [compound 43]				Delta SFC/10^6 cells [1, 6]: 1 SFC/10^6 cells; Delta SFC/10^6 cells [1, 7]: 1 SFC/10^6 cells; Delta SFC/10^6 cells [2, 8]: 365 SFC/10^6 cells
YTNWKFIYL [compound 50]	1 SFC/10^6 cells	1 SFC/10^6 cells	75 SFC/10^6 cells	
YVVWDSIYYI [compound 73]	3 SFC/10^6 cells	1 SFC/10^6 cells	1 SFC/10^6 cells	
YYITETGIW [compound 85]	8 SFC/10^6 cells	28 SFC/10^6 cells	15 SFC/10^6 cells	
YYMTDAGTW [compound 40]				Delta SFC/10^6 cells [1, 6]: 5 SFC/10^6 cells; Delta SFC/10^6 cells [1, 7]: 3 SFC/10^6 cells; Delta SFC/10^6 cells [2, 8]: 135 SFC/10^6 cells
